# According to the supplement of paper PMC8728848:
# The other results are listed elsewhere or left out.
# Key:
# Experiment in all cases: glycan array binding signal (z-score within array); higher = stronger binding
# Conditions in all cases: glycan notation: IUPAC condensed, linker removed
# [1] = biological target: Neu5Ac(a2-3)GalNAc
# How it was run: (§1)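 The Consortium for Functional Glycomics database supplied 3228 glycan arrays, of which those lacking an available protein sequence were dropped. The binding signal, a within-array Z-score, was averaged across arrays of the same protein sequence and across linkers. Negative scores can be read as non-binding.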
# [2] = biological target: Neu5Ac(a2-3)GalNAc(b1-4)GlcNAc
# How it was run: as §1
# [3] = biological target: Neu5Ac(a2-3)[GalNAc(b1-4)]Gal(b1-4)Glc
# How it was run: as §1
# [4] = biological target: Neu5Ac(a2-3)[GalNAc(b1-4)]Gal(b1-4)GlcNAc
# How it was run: as §1
# [5] = biological target: Neu5Ac(a2-3)[GalNAc(b1-4)]Gal(b1-4)GlcNAc(b1-3)GalNAc
# How it was run: as §1
# [6] = biological target: Neu5Ac(a2-3)[Neu5Ac(a2-6)]GalNAc
# How it was run: as §1
# [7] = biological target: Neu5Ac(a2-6)Gal
# How it was run: as §1
# [8] = biological target: Neu5Ac(a2-6)Gal(b1-3)GlcNAc(b1-3)[Gal(b1-4)GlcNAc(b1-6)]Gal(b1-4)Glc
# How it was run: as §1
# [9] = biological target: Neu5Ac(a2-6)Gal(b1-4)Glc
# How it was run: as §1
# [10] = biological target: Neu5Ac(a2-6)Gal(b1-4)GlcNAc
# How it was run: as §1
# [11] = biological target: Neu5Ac(a2-6)Gal(b1-4)GlcNAc(b1-2)Man
# How it was run: as §1
# [12] = biological target: Neu5Ac(a2-6)Gal(b1-4)GlcNAc(b1-2)Man(a1-3)Man(b1-4)GlcNAc(b1-4)GlcNAc
# How it was run: as §1
# [13] = biological target: Neu5Ac(a2-6)Gal(b1-4)GlcNAc(b1-2)Man(a1-3)[Gal(b1-4)GlcNAc(b1-2)Man(a1-6)]Man(b1-4)GlcNAc(b1-4)GlcNAc
# How it was run: as §1
# [14] = biological target: Neu5Ac(a2-6)Gal(b1-4)GlcNAc(b1-2)Man(a1-3)[GlcNAc(b1-2)Man(a1-6)]Man(b1-4)GlcNAc(b1-4)GlcNAc
# How it was run: as §1
# [15] = biological target: Neu5Ac(a2-6)Gal(b1-4)GlcNAc(b1-2)Man(a1-3)[GlcNAc(b1-4)][Neu5Ac(a2-6)Gal(b1-4)GlcNAc(b1-2)Man(a1-6)]Man(b1-4)GlcNAc(b1-4)GlcNAc
# How it was run: as §1
# [16] = biological target: Neu5Ac(a2-6)Gal(b1-4)GlcNAc(b1-2)Man(a1-3)[Man(a1-6)]Man(b1-4)GlcNAc(b1-4)GlcNAc
# How it was run: as §1
# [17] = biological target: Neu5Ac(a2-6)Gal(b1-4)GlcNAc(b1-2)Man(a1-3)[Neu5Ac(a2-3)Gal(b1-4)GlcNAc(b1-2)Man(a1-6)]Man(b1-4)GlcNAc(b1-4)GlcNAc
# How it was run: as §1
# [18] = biological target: Neu5Ac(a2-6)Gal(b1-4)GlcNAc(b1-2)Man(a1-3)[Neu5Ac(a2-6)Gal(b1-4)GlcNAc(b1-2)Man(a1-6)]Man(b1-4)GlcNAc(b1-4)GlcNAc
# How it was run: as §1
# [19] = biological target: Neu5Ac(a2-6)Gal(b1-4)GlcNAc(b1-2)Man(a1-3)[Neu5Ac(a2-6)Gal(b1-4)GlcNAc(b1-2)Man(a1-6)]Man(b1-4)GlcNAc(b1-4)[Fuc(a1-6)]GlcNAc
# How it was run: as §1
# [20] = biological target: Neu5Ac(a2-6)Gal(b1-4)GlcNAc(b1-2)Man(a1-6)Man(b1-4)GlcNAc(b1-4)GlcNAc
# How it was run: as §1
# [21] = biological target: Neu5Ac(a2-6)Gal(b1-4)GlcNAc(b1-2)Man(a1-6)[Gal(b1-4)GlcNAc(b1-2)Man(a1-3)]Man(b1-4)GlcNAc(b1-4)GlcNAc
# How it was run: as §1
# [22] = biological target: Neu5Ac(a2-6)Gal(b1-4)GlcNAc(b1-2)Man(a1-6)[GlcNAc(b1-2)Man(a1-3)]Man(b1-4)GlcNAc(b1-4)GlcNAc
# How it was run: as §1
# [23] = biological target: Neu5Ac(a2-6)Gal(b1-4)GlcNAc(b1-2)Man(a1-6)[Man(a1-3)]Man(b1-4)GlcNAc(b1-4)GlcNAc
# How it was run: as §1
# [24] = biological target: Neu5Ac(a2-6)Gal(b1-4)GlcNAc(b1-2)[Neu5Ac(a2-6)Gal(b1-4)GlcNAc(b1-4)]Man(a1-3)[GlcNAc(b1-4)][Neu5Ac(a2-6)Gal(b1-4)GlcNAc(b1-2)[Neu5Ac(a2-6)Gal(b1-4)GlcNAc(b1-6)]Man(a1-6)]Man(b1-4)GlcNAc(b1-4)GlcNAc
# How it was run: as §1
# [25] = biological target: Neu5Ac(a2-6)Gal(b1-4)GlcNAc(b1-2)[Neu5Ac(a2-6)Gal(b1-4)GlcNAc(b1-4)]Man(a1-3)[GlcNAc(b1-4)][Neu5Ac(a2-6)Gal(b1-4)GlcNAc(b1-4)Man(a1-6)]Man(b1-4)GlcNAc(b1-4)GlcNAc
# How it was run: as §1
# [26] = biological target: Neu5Ac(a2-6)Gal(b1-4)GlcNAc(b1-2)[Neu5Ac(a2-6)Gal(b1-4)GlcNAc(b1-6)]Man(a1-6)[Neu5Ac(a2-6)Gal(b1-4)GlcNAc(b1-2)Man(a1-3)][GlcNAc(b1-4)]Man(b1-4)GlcNAc(b1-4)GlcNAc
# How it was run: as §1
# [27] = biological target: Neu5Ac(a2-6)Gal(b1-4)GlcNAc(b1-3)Gal(b1-3)GlcNAc
# How it was run: as §1
# [28] = biological target: Neu5Ac(a2-6)Gal(b1-4)GlcNAc(b1-3)Gal(b1-4)GlcNAc
# How it was run: as §1
# [29] = biological target: Neu5Ac(a2-6)Gal(b1-4)GlcNAc(b1-3)Gal(b1-4)GlcNAc(b1-2)Man(a1-3)[Neu5Ac(a2-6)Gal(b1-4)GlcNAc(b1-3)Gal(b1-4)GlcNAc(b1-2)Man(a1-6)]GalNAc
# How it was run: as §1
# [30] = biological target: Neu5Ac(a2-6)Gal(b1-4)GlcNAc(b1-3)Gal(b1-4)GlcNAc(b1-3)Gal(b1-4)GlcNAc
# How it was run: as §1
# [31] = biological target: Neu5Ac(a2-6)Gal(b1-4)GlcNAc(b1-3)Gal(b1-4)GlcNAc(b1-3)Gal(b1-4)GlcNAc(b1-2)Man(a1-3)[Neu5Ac(a2-6)Gal(b1-4)GlcNAc(b1-3)Gal(b1-4)GlcNAc(b1-3)Gal(b1-4)GlcNAc(b1-2)Man(a1-6)]GalNAc
# How it was run: as §1
# [32] = biological target: Neu5Ac(a2-6)Gal(b1-4)GlcNAc(b1-3)Gal(b1-4)GlcNAc(b1-3)GalNAc
# How it was run: as §1
# [33] = biological target: Neu5Ac(a2-6)Gal(b1-4)GlcNAc(b1-3)Gal(b1-4)GlcNAc(b1-3)[Neu5Ac(a2-6)Gal(b1-4)GlcNAc(b1-3)Gal(b1-4)GlcNAc(b1-6)]GalNAc
# How it was run: as §1
# [34] = biological target: Neu5Ac(a2-6)Gal(b1-4)GlcNAc(b1-3)Gal(b1-4)GlcNAc(b1-6)[Gal(b1-3)]GalNAc
# How it was run: as §1
# [35] = biological target: Neu5Ac(a2-6)Gal(b1-4)GlcNAc(b1-3)Gal(b1-4)[Fuc(a1-3)]GlcNAc(b1-3)Gal(b1-4)[Fuc(a1-3)]GlcNAc
# How it was run: as §1
# [36] = biological target: Neu5Ac(a2-6)Gal(b1-4)GlcNAc(b1-3)GalNAc
# How it was run: as §1
# [37] = biological target: Neu5Ac(a2-6)Gal(b1-4)GlcNAc(b1-3)[Neu5Ac(a2-6)Gal(b1-4)GlcNAc(b1-6)]GalNAc
# How it was run: as §1
# [38] = biological target: Neu5Ac(a2-6)Gal(b1-4)GlcNAc(b1-6)GalNAc
# How it was run: as §1
# [39] = biological target: Neu5Ac(a2-6)Gal(b1-4)GlcNAc(b1-6)[Gal(b1-3)GlcNAc(b1-3)]Gal(b1-4)Glc
# How it was run: as §1
# [40] = biological target: Neu5Ac(a2-6)Gal(b1-4)GlcNAc(b1-6)[Gal(b1-3)]GalNAc
# How it was run: as §1
# [41] = biological target: Neu5Ac(a2-6)Gal(b1-4)GlcNAc6S
# How it was run: as §1
# [42] = biological target: Neu5Ac(a2-6)GalNAc
# How it was run: as §1
# [43] = biological target: Neu5Ac(a2-6)GalNAc(b1-4)GlcNAc
# How it was run: as §1
# [44] = biological target: Neu5Ac(a2-6)GalNAc(b1-4)GlcNAc6S
# How it was run: as §1
# [45] = biological target: Neu5Ac(a2-6)GlcNAc(b1-4)GlcNAc
# How it was run: as §1
binder,measurement,setting,value
SBD-G4S3-SBD (protein) MASIPSSASVQLDSYNYDGSTFSGKIYVKNIAYSKKVTVVYADGSDNWNNNGNIIAASFSGPISGSNYEYWTFSASVKGIKEFYIKYEVSGKTYYDNNNSANYQVSTGGGGSGGGGSGGGGSEFASIPSSASVQLDSYNYDGSTFSGKIYVKNIAYSKKVTVVYADGSDNWNNNGNIIAASFSGPISGSNYEYWTFSASVKGIKEFYIKYEVSGKTYYDNNNSANYQVST,glycan array binding signal (z-score),[1],-0.406
same,glycan array binding signal (z-score),[2],-0.344
same,glycan array binding signal (z-score),[3],-0.302
same,glycan array binding signal (z-score),[4],-0.046
same,glycan array binding signal (z-score),[5],1.13
same,glycan array binding signal (z-score),[6],-0.368
same,glycan array binding signal (z-score),[7],-0.372
same,glycan array binding signal (z-score),[8],-0.392
same,glycan array binding signal (z-score),[9],-0.399
same,glycan array binding signal (z-score),[10],-0.406
same,glycan array binding signal (z-score),[11],-0.375
same,glycan array binding signal (z-score),[12],-0.003
same,glycan array binding signal (z-score),[13],0.115
same,glycan array binding signal (z-score),[14],1.81
same,glycan array binding signal (z-score),[15],-0.091
same,glycan array binding signal (z-score),[16],0.556
same,glycan array binding signal (z-score),[17],-0.181
same,glycan array binding signal (z-score),[18],-0.33
same,glycan array binding signal (z-score),[19],0.912
same,glycan array binding signal (z-score),[20],-0.186
same,glycan array binding signal (z-score),[21],-0.44
same,glycan array binding signal (z-score),[22],-0.392
same,glycan array binding signal (z-score),[23],0.222
same,glycan array binding signal (z-score),[24],-0.032
same,glycan array binding signal (z-score),[25],-0.36
same,glycan array binding signal (z-score),[26],0.103
same,glycan array binding signal (z-score),[27],-0.368
same,glycan array binding signal (z-score),[28],-0.415
same,glycan array binding signal (z-score),[29],1.98
same,glycan array binding signal (z-score),[30],-0.382
same,glycan array binding signal (z-score),[31],0.419
same,glycan array binding signal (z-score),[32],-0.389
same,glycan array binding signal (z-score),[33],-0.275
same,glycan array binding signal (z-score),[34],-0.221
same,glycan array binding signal (z-score),[35],-0.376
same,glycan array binding signal (z-score),[36],-0.24
same,glycan array binding signal (z-score),[37],-0.291
same,glycan array binding signal (z-score),[38],-0.246
same,glycan array binding signal (z-score),[39],-0.241
same,glycan array binding signal (z-score),[40],-0.313
same,glycan array binding signal (z-score),[41],-0.387
same,glycan array binding signal (z-score),[42],-0.401
same,glycan array binding signal (z-score),[43],-0.413
same,glycan array binding signal (z-score),[44],-0.365
same,glycan array binding signal (z-score),[45],-0.416
